Assay results as given in PubChem BioAssay AID651582 (Sanford-Burnham Center for Chemical Genomics, 2012).
The other results are listed elsewhere or left out. Further columns of the screen follow, without active or inactive calls. Most of these compounds were active or inconclusive in the main read-out, so they are no random draw.

Test: inhibitors of triacylglycerol accumulation, primary screen, cell-based, uHTS, fluorescence, H9c2 (AID 651582)
Conditions: H9c2 cells, Nile Red lipid (TAG) fluorescence; measured here:; at 12.5 µM; cells loaded with 200 µM oleic acid

SMILES	DAPI nuclei signal change (viability), lower = more cytotoxic
CC(Sc1nc(NCc2ccccc2)nc(N2CCOCC2)n1)C(=O)Nc1ccccc1 (stereo unspecified)	-0.115%
CCOC(=O)c1cc(-c2ccccc2)sc1NC(=O)C(C)N1C(=O)NC(C)(c2ccc(Cl)cc2)C1=O (stereo unspecified)	-5.7%
CCN(CC)S(=O)(=O)c1ccc2c(c1)C(=NO)c1cc(S(=O)(=O)N(CC)CC)ccc1-2	-9.51%
COc1ccc(Nc2nc3cc(-c4sccc4C)sc3c(=O)n2C)cc1OC	-32.8%
C=CCOc1c(OC)cc(/C=N/Nc2cccc(C(=O)O)c2)c(Br)c1Br	-36.8%
CCOc1ccccc1NC(=O)CCC(=O)Nc1ccccc1OCC	-11.8%
Cc1ccc(NC(=O)c2cc([N+](=O)[O-])ccc2NCc2cccnc2)cc1Cl	-3.32%
CCCC(=O)Nc1nc2nc(-c3ccccc3)cc(-c3ccccc3)n2n1	-4.22%
N#CC(C#N)=c1ccc2c(c1)N1C(c3ccccc3)=CC(c3ccccc3)C3CCCCC31N=2 (stereo unspecified)	-5.31%
COC(=O)C1=C(C)N(Cc2ccccc2)C(=NCc2ccccc2)N[C@H]1c1ccccc1	-44.4%
COc1ccc(S(=O)(=O)N2c3cc(Cl)ccc3Oc3nc4ccccc4nc32)cc1	-25.2%
COc1ccccc1NC(=O)Nc1nc(C(N)Cc2ccc(C(F)(F)F)cc2)cs1 (stereo unspecified)	-45.6%
COc1cccc(/C=N/NC(=O)CNC(=O)COc2ccccc2)c1O	-14.8%
CN1CCN(c2ccccc2NC(=O)c2ccc([N+](=O)[O-])o2)CC1	-45.6%
Cc1c(/C=N/Nc2nc3ccccc3[nH]2)c2ccccc2n1C	-23.3%
CCCc1cc(N2CCCC2)n2nc(C)c(-c3ccccc3)c2n1	12.3%
Cc1cc(C(=O)CCl)c(C)n1CCc1ccc(Cl)cc1	-40.8%
CN1CCN(C(=O)c2ccc(Cc3cn(C)c4ccccc34)nc2)CC1	-41.7%
O=C(CSc1cccc2cccnc12)Nc1cc(C(=O)O)cc(C(=O)O)c1	-11.9%
Cc1ccc(-c2nn3c(C)nnc3c3ccccc23)cc1S(=O)(=O)NC(C)c1ccccc1 (stereo unspecified)	-2.69%
COC(=O)[C@]1(CC(C)C)N[C@H](c2ccc(-c3ccc(OC)cc3)cc2)[C@@H]2C(=O)N(C)C(=O)[C@@H]21	42.4%
N#CCCN1CCCc2cc(N=Nc3ccc(C(F)(F)F)cc3)ccc21	-7.6%
C[C@@]12C(=O)Nc3cc(F)c(F)cc3C(=O)N1[C@H]1c3cc(Cl)ccc3OC[C@@H]1[C@@H]2c1ccccc1	-29.5%

SMILES	DAPI nuclei signal change (viability), lower = more cytotoxic
O=[N+]([O-])c1ccc(-c2cn3nc(-c4ccccc4)c(-c4ccccc4)nc3n2)cc1	-41.5%
COc1ccc(N=C2C(=Nc3ccc(OC)cc3)N(c3ccc(OC)cc3)C(=S)N2C(=O)c2ccc(OC)cc2)cc1	-1.93%
Cc1cc(N/N=C/c2cccc(Cl)c2)nc(-n2nc(C)cc2C)n1	-25.1%
COc1ccc(-c2cc(C(F)F)n3ncc(C(=O)Nc4cccc(S(=O)(=O)N5CCOCC5)c4)c3n2)cc1	9.91%
CC1(c2ccccc2)O[C@@H]2C[C@H]3[C@@H]4CCC5=CC(=O)C=C[C@]5(C)[C@@]4(F)[C@@H](O)C[C@]3(C)[C@]2(C(=O)CO)O1 (stereo partly specified)	0.411%
COc1cc(C#Cc2c(-c3cncn3C)n(C)c3ccc(-c4ccc(OC)nc4)cc23)cc(OC)c1	148%
COc1ccc(-c2nc(-c3ccccc3)c(-c3cc([N+](=O)[O-])ccc3C)[nH]2)cc1OC	-1.19%
COc1cc(Cn2c(-c3nonc3N)nc3ccccc32)ccc1C	-16.8%
CCc1nnc(NS(=O)(=O)c2ccc(NC(=O)c3ccc([N+](=O)[O-])s3)cc2)s1	-33.6%
CCCCn1c(=N)n(CC(=O)c2ccc(Br)s2)c2ccccc21	-25.8%
O=S(=O)(c1ccc(OCC(O)CNC23CC4CC(CC(C4)C2)C3)c(Cl)c1)N1CCOCC1 (stereo unspecified)	-17.3%
Cc1ccccc1NC(=O)c1nc(S(C)(=O)=O)ncc1Cl	-48.2%
CCOC(=O)/C(=C\c1cccnc1)C(=O)c1cc(C(C)=O)c(Nc2ccccc2)s1	-48.3%
Oc1cccc2cc(Nc3ccccc3)cnc12	-22.2%
CSC1=C(C#N)C(c2ccccc2C)C(C#N)=C(N)N1 (stereo unspecified)	-24.1%
O=C(CCl)Nc1cccc(S(=O)(=O)NC2=NCCCCC2)c1	-27.7%
O=C(Nc1cccc(NS(=O)(=O)c2ccc(S(=O)(=O)NC3CC3)cc2)c1)c1ccccn1	4.06%
Cc1cc(NC(=O)CC2CCCC2)n(-c2nc3ccccc3[nH]2)n1	-14.9%
COc1ccc(-c2oc(=O)c3cc(OC)c(OC)cc3c2/C=C/c2ccc([N+](=O)[O-])cc2)cc1	3.16%
CCOc1ccccc1NC(=O)C(CC(C)C)NC(=O)C1CCCCC1 (stereo unspecified)	0.414%
Cc1ccc(Cn2cc(/C=N/NC(=O)Cc3nnc(NC(=O)c4ccc(C)cc4)s3)c3ccccc32)cc1	-38.5%
O=C(CCC1CCCCC1)NCCN1C2=NC[C@@H](Cc3ccccc3)N2C[C@H]1Cc1ccc(O)cc1	-32.3%
Fc1cccc(Nc2nc(-c3ccncc3)nc3ccccc23)c1	-23.6%

SMILES	DAPI nuclei signal change (viability), lower = more cytotoxic
C(=N\Nc1nc2ccccc2[nH]1)/C1CCCCC1	-19%
COC(=O)c1c(NC(=O)c2ccc([N+](=O)[O-])o2)sc2c1CCN(C(C)C)C2	-43.5%
CCC(C)NCCOCCOc1ccc(Cl)c2ccccc12 (stereo unspecified)	-8.59%
Nc1cc2c(cc1Br)[nH]c(=O)c1ccccc12	-48.9%
COc1ccccc1N1CCN(CC(=O)Nc2cc(C)nn2-c2nc(C)cc(C)n2)CC1	-18.9%
COc1cc([C@@H]2c3cc4c(cc3[C@H](O)[C@H]3COC(=O)[C@H]23)OCO4)cc(OC)c1OC	-28.6%
O=C(Nc1ccc(Cl)cc1)c1csc([C@@H]2C[C@H](O)[C@@H](CO)O2)n1	-40.3%
C[C@H]1CCCCO[C@H](CN(C)CC2CCCCC2)[C@@H](C)CN([C@@H](C)CO)C(=O)c2cc(NS(=O)(=O)c3ccccc3)ccc2O1	-29.8%
Cc1cc(N2CCOCC2)n2nc(C)c(-c3ccccc3)c2n1	-8.11%
COc1ccc(NC(=O)c2cc3c(-c4ccc(OC)c(OC)c4)nn(C)c3s2)cc1OC	-13.3%
O=C(Nc1ccc2ccccc2c1)[C@@H]1C[C@H]1[C@@H](NP(=O)(c1ccccc1)c1ccccc1)c1ccccc1	-2.78%
CC(C)COc1ccc(C(=O)Nc2scc(-c3ccc(Cl)cc3Cl)c2C(N)=O)cc1	2.94%
C#CCOCCOCCOCCNc1nc(N2CCN(C(=O)[C@H](CCCCN)n3cc([C@@H](N)CO)nn3)CC2)nc(N2CCN(C(=O)[C@H](CCCCN)n3cc([C@@H](N)CC(C)C)nn3)CC2)n1	-34.6%
CC(C)NC(=O)N(C)C[C@H]1Oc2cc(C#Cc3ccc(F)cc3)ccc2S(=O)(=O)N([C@H](C)CO)C[C@H]1C	-3.04%
COc1cc(-c2nnc3n2N=C(c2ccccc2)CS3)cc(OC)c1OC	-24.6%
O=C(Nc1ccc(/C=C/c2nc3ccccc3o2)cc1)c1c(F)cccc1F	30.5%
Cc1cccc(Nc2nc(NCc3ccco3)nc(N3CCOCC3)n2)c1	-19.8%
COc1cc(CNC(=O)Nc2nc(C(N)Cc3ccc(C(F)(F)F)cc3)cs2)cc(OC)c1OC (stereo unspecified)	-22.8%
Cc1cc(C)c2nc(-c3ccncc3)cc(C(=O)N3CCN(Cc4ccccc4Cl)CC3)c2c1	0.00848%
CCOC(=O)c1c(SCCN2CCCC2)n(-c2ccccc2)c(=S)n(-c2ccccc2)c1=O	-44.3%
CCN(CC)CCNc1ccc(C)c2sc3ccc(O)cc3c(=O)c12	-43.3%
COc1cc(OC)cc(C(=O)N2CC(=O)Nc3ccccc32)c1	-28.9%
Cn1c(N)c(C(=O)COC(=O)c2ccc([N+](=O)[O-])o2)c(=O)n(C)c1=O	-47.2%

SMILES	DAPI nuclei signal change (viability), lower = more cytotoxic
O=c1nc(N/N=C/C=C/c2ccccc2)cn[nH]1	-20%
COc1cc(C(CCN2CCCCC2)c2c(OC)cc(OC)c3c(-c4ccccc4)cc(=O)oc23)cc(OC)c1OC (stereo unspecified)	-29.6%
CC(C)C(C)(C#N)NC(=O)CSc1nc2scc(-c3ccco3)c2c(=O)n1-c1ccccc1 (stereo unspecified)	-4.39%
COc1ccc(/C=N/NC(=O)COc2ccccc2-c2ccccc2)cc1	-20.6%
CCN(C(=O)COC(=O)c1cc(-c2ccccc2)nc2c1c(C)nn2-c1ccc(C)cc1)C1CCS(=O)(=O)C1 (stereo unspecified)	33.5%
O=C(c1ccccc1)c1ccc2nc(-c3ccc(NC(=O)c4ccccc4F)cc3)[nH]c2c1	-18.4%
COc1ccc2nc(NN=C(C)c3ccccn3)cc(C)c2c1	-38.6%
O=C1C=CC(O)C2(CO)OC12 (stereo unspecified)	-42.6%
CN(C)CCCn1c(=O)n(CCc2ccccc2)c(=O)c2c3c(sc21)CCCCC3	-10.7%
COc1ccc(NC(=O)O[C@@H](C)[C@@H]2CN3CCc4c([nH]c5ccc(-c6ccc(OC)cc6)cc45)[C@@H]3C[C@@H]2N(C)C(=O)Nc2ccc(OC)cc2)cc1	-6.95%
Cc1ccc(F)c(Oc2cc(NN3CCCCC3)c([N+](=O)[O-])cc2[N+](=O)[O-])c1	-28.1%
CC(C)C[C@@H](CN1CCCC1CN1C(=S)NC[C@@H]1Cc1ccc(O)cc1)N1C[C@H](Cc2ccccc2)N(CC2CCCCC2)C1=S (stereo partly specified)	-49.6%
CCc1cccc2c1Sc1ccccc1CC2N1CCNCC1 (stereo unspecified)	-29.4%
C=CC[C@@H](CC(=O)N(CCO)Cc1ccccc1)C(=O)N[C@H](COC(=O)[C@@H](CC=C)CC(=O)OC(C)(C)C)Cc1ccccc1	-6.01%
CS(=O)(=O)Oc1ccc2c(c1)O/C(=C\C=C\c1ccccc1)C2=O	-45.5%
Nc1ccccc1Nc1cccc(C(F)(F)F)c1	-28%
CCOC(=O)[C@H]1[C@H]2COc3ccc(C)cc3[C@@H]2N2C(=O)c3cc(Br)ccc3NC(=O)[C@@]12C	-11.9%
CC(=NNc1nc2ccccc2s1)c1ncccn1	-43.2%
CN(C)CCCN1c2ccccc2Sc2ccc3ccccc3c21	-10.2%
O=c1cc(-c2ccccc2)[nH]c2ccccc12	-20.2%
O=C(Nc1cccc(Cl)c1)c1nc[nH]c1C(=O)NCCCNC(=O)c1[nH]cnc1C(=O)Nc1cccc(Cl)c1	4.76%
O=C(CSc1nc(-c2ccco2)cc(C(F)(F)F)n1)Nc1ccc2c(c1)CCC2	-13%
